# Source: PubChem BioAssay (Tox21)
# Where “and” joins values, the source holds several entries; their conditions need not be identical. Equal values may be shown once. This list was built around the results that the source calls inconclusive (neither active nor inactive); the mix of calls is not that of the screen. For some assays here: No potency is given beside an inconclusive call; the fits are too rough. Calls of active or inactive are those of the source. Unless noted, the call rests on the fitted dose curve; in most records, active means well fitted curve in the direction sought with a large enough effect in the repeat runs; inconclusive means weak or mixed curves; inactive means no such curve, though single readings can be large; an effect the other way counts as inactive or inconclusive.
# What was measured:
# [1] = qHTS assay for identifying genotoxic compounds that show differential cytotoxicity against isogenic chicken DT40 cell lines with known DNA damage response pathways - wild type cell line (AID 743012); details: DT40 wild type chicken cells viability, CellTiter-Glo, 40 h; activity change, negative = cytotoxicity: at 68.4 µM (top of the series) unless noted; further: nearly all actives have a fitted effect of over 60% in size
# Outline: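 Using parental DT40 (300 cells/well), compounds delivered in DMSO incubate 40 h at 37 C/5% CO2. CellTiter-Glo reagent then stands 30 min at room temperature, and luminescence gives cell viability.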
# [2] = qHTS assay for identifying genotoxic compounds that show differential cytotoxicity against isogenic chicken DT40 cell lines with known DNA damage response pathways - Rev3 mutant cell line (AID 743014); details: chicken DT40 Rev3-/- viability, CellTiter-Glo, 40 h; series mostly up to 68.4 µM; further: nearly all actives have a fitted effect of over 55% in size
# [3] = qHTS assay to identify small molecule antagonists of the androgen receptor (AR) signaling pathway - cell viability counter screen (AID 743033; further: nearly all actives have a fitted effect of over 45% in size); details: AR-bla HEK293 viability, CellTiter-Glo luminescence, 16 h; activity change, negative = cytotoxicity: at 58.5 µM (top of the series)
# [4] = qHTS assay to identify small molecule antagonists of the thyroid receptor (TR) signaling pathway - cell viability counter screen (AID 743064); details: GH3.TRE-Luc viability, CellTiter-Fluor, 24 h; activity change, negative = cytotoxic: at 70.3 µM (top of the series) unless noted; further: nearly all actives have a fitted effect of over 50% in size
# Outline: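 Counter screen for cytotoxicity: compound plus T3 (1 nM final) on GH3.TRE-Luc cells, 23.5 h at 37 °C, then fluorescence viability readout with CellTiter-Fluor.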
# [5] = qHTS assay for identifying genotoxic compounds that show differential cytotoxicity against isogenic chicken DT40 cell lines with known DNA damage response pathways - Rad54/Ku70 mutant cell line (AID 743015); details: DT40 Rad54/Ku70 mutant viability, CellTiter-Glo, 40 h; activity change, negative = cytotoxicity: at 66.8 µM (top of the series); further: nearly all actives have a fitted effect of over 60% in size
# [6] = biological target: Androgen receptor (Homo sapiens) (UniProt P10275); experiment: qHTS assay to identify small molecule antagonists of the androgen receptor (AR) signaling pathway (AID 743035; active means well fitted inhibition curve with a large enough effect in the signal ratio in the repeat runs, not every such curve was filed as active; inconclusive means weak or mixed curves, or effect the other way; inactive means no such curve, though single readings can be large or run the other way; the % refers to the signal ratio); details: HEK293 AR-UAS-bla, R1881-stimulated, beta-lactamase FRET, 16 h; series mostly up to 58.5 µM
# Outline: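 Using qHTS, AR-UAS-bla GripTite HEK293 cells received compound, then R1881, and were cultured 16 h at 37C/5% CO2 before a 2 h room-temperature LiveBLAzer B/G FRET substrate step and fluorescence measurement.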
# [7] = biological target: Androgen receptor (Homo sapiens) (UniProt P10275); experiment: qHTS assay to identify small molecule agonists of the androgen receptor (AR) signaling pathway (AID 743036; active means well fitted activation curve with a large enough effect in the signal ratio in the repeat runs, with a control signal flat, not every such curve was filed as active; inconclusive means weak or mixed curves, or effect the other way; inactive means no such curve, though single readings can be large or run the other way; the % refers to the signal ratio); details: HEK293 AR-UAS-bla GripTite, beta-lactamase FRET ratio, 16 h; series mostly up to 62.4 µM
# Outline: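 In this Tox21 qHTS, 2,000 HEK293 AR-bla cells per well were incubated with compounds for 16 h at 37C and 5% CO2. Fluorescence intensity was recorded 2 h after adding LiveBLAzer B/G FRET substrate at room temperature.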
# [8] = qHTS assay to identify small molecule antagonists of the androgen receptor (AR) signaling pathway using the MDA cell line - cell viability counter screen (AID 743041; further: nearly all actives have a fitted effect of over 45% in size); details: MDA-kb2 viability, CellTiter-Fluor, 16 h, cells co-treated with R1881 androgen agonist; series mostly up to 70.3 µM
# Outline: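 MDA-kb2 AR-luc cells (MMTV-luciferase, AR/GR responsive) treated with compounds plus R1881 agonist for 16 h at 37C. CellTiter-Fluor added at 15.5 h; fluorescence read after 30 min in the same wells.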
# [9] = biological target: Androgen receptor (Homo sapiens) (UniProt P10275); experiment: qHTS assay to identify small molecule antagonists of the androgen receptor (AR) signaling pathway using the MDA cell line (AID 743042; further: nearly all actives have a fitted effect of over 55% in size); details: MDA-kb2 AR-luc, MMTV luciferase, R1881 antagonist, 16 h; series mostly up to 70.3 µM
# Outline: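 MDA-kb2 breast carcinoma cells carrying MMTV-luciferase (AR/GR responsive) were co-treated with compounds and the agonist R1881 for 16 h at 37C. Inhibition read as ONE-Glo luminescence; CellTiter-Fluor fluorescence measured in parallel for cytotoxicity.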
# Potency means the concentration at half of the fitted maximal effect; tags describe the fitted curve by direction and shape or compound fluorescence and quenching.
# UniProt P10275, sequence (P10275 whole entry, looked up): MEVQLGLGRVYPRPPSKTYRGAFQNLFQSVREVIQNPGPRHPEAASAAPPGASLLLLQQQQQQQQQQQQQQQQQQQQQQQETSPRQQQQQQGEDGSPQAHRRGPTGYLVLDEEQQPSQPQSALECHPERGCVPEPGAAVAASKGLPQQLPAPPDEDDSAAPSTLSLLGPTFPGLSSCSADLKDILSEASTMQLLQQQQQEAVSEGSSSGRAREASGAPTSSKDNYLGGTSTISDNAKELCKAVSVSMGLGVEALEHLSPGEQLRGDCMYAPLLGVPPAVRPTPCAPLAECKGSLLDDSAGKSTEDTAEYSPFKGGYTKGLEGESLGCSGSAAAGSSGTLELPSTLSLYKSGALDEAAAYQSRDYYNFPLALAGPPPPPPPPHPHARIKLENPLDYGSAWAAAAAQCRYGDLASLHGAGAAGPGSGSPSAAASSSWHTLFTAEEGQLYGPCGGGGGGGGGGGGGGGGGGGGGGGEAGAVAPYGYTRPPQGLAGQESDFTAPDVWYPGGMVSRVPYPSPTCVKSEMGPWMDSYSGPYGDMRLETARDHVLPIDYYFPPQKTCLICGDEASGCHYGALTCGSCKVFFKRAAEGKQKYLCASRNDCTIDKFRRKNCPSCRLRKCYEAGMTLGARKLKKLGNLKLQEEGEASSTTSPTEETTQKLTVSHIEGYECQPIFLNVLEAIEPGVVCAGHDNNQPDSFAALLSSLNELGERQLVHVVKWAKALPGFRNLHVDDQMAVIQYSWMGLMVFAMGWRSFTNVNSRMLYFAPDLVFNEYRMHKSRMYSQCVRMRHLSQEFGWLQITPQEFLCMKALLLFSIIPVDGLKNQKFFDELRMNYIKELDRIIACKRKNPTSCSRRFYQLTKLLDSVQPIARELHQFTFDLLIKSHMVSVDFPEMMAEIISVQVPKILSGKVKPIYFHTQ
structure (smiles),measurement,setting,value
CC[C@H](C)COC(=O)/C=C/c1ccc(N=Cc2ccc(OC)cc2)cc1,Potency,[1],"inconclusive [cytotoxic, single point]"
same,Potency,[2],active: 61 µM
same,Potency,[3],"inconclusive [cytotoxic, single point]"
same,Potency,[4],"inconclusive [cytotoxic, single point]"
CCOC(=O)c1ccccc1C,Potency,[1],"inconclusive [cytotoxic, single point]"
same,Potency,[5],"inconclusive [cytotoxic, single point]"
CCC(=O)O[C@H]1[C@H](O[C@@H]2[C@@H](C)[C@H](O[C@H]3C[C@@](C)(OC)[C@@H](O)[C@H](C)O3)[C@@H](C)C(=O)O[C@H](CC)[C@@](C)(O)[C@H](O)[C@@H](C)C(=O)[C@H](C)C[C@@]2(C)O)O[C@H](C)C[C@@H]1N(C)C,Potency,[1],"inconclusive [cytotoxic, full curve]"
same,Potency,[3],"inconclusive [cytotoxic, partial curve, poor fit]"
same,Potency,[4],active: 13.3 µM and active: 36.1 µM
Cc1ccc(N)cc1O,Potency,[1],active: 30.6 µM
same,Potency,[6],inconclusive
same,Potency,[7],"inconclusive [fluorescent, partial curve, poor fit]"
same,Potency,[8],"inconclusive [cytotoxic, partial curve, poor fit]"
same,Potency,[9],inconclusive [inhibitor]
same,Potency,[4],"inconclusive [rising, single point]"
CCCCC(CC)COP(=O)(O)O (configuration not stated),Potency,[1],"inconclusive [rising, single point]"
same,Potency,[8],inactive
